# PMC4336329 (PLoS ONE, 2015)
# Among all 310,000 compounds or so, about 2,200 (0.71%) showed an effect of 50% or more. Effects have a minus sign here. Some of the results follow.
# Target: human ether-à-go-go-related gene (hERG) potassium channel (human, UniProt Q12809)
# Assay: primary screen, population patch clamp on CHO cells stably expressing hERG
# Sequence of human ether-à-go-go-related gene (hERG) potassium channel (Q12809 whole entry, looked up): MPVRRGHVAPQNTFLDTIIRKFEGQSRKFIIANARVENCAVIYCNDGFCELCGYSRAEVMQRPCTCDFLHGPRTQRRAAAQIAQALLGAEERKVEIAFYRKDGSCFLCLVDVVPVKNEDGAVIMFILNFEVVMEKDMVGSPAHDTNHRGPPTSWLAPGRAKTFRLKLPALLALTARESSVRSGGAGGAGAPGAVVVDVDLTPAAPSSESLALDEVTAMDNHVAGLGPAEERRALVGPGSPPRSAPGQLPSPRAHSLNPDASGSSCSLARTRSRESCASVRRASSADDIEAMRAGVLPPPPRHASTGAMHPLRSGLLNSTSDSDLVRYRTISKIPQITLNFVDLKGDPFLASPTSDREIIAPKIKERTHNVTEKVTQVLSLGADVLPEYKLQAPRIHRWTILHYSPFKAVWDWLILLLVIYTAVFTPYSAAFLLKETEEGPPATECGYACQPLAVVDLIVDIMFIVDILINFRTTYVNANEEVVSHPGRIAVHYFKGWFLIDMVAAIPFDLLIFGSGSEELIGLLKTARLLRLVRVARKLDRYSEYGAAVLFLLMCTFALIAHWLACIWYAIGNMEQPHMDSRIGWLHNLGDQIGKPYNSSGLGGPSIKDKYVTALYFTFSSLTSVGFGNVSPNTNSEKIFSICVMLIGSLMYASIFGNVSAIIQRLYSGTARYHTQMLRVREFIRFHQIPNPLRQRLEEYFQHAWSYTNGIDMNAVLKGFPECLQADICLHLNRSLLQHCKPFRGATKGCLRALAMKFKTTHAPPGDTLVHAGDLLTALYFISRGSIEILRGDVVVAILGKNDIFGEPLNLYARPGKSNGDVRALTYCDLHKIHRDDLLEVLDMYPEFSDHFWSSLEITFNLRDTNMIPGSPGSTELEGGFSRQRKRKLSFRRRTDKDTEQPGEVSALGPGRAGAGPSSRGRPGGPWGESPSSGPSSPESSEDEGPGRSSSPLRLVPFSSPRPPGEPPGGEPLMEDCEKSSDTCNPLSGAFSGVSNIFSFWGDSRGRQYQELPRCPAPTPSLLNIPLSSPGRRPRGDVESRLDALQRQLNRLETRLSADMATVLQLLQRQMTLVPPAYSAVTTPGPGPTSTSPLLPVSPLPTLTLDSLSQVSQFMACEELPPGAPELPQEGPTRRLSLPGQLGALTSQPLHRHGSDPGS
row,SMILES,"hERG current change (%, negative = inhibition) at 1uM [%]"
1,O=C(COc1ccc2ccccc2c1)Nc1nnc(-c2ccco2)s1,-1.16
2,CCN(CC)CCCNC(=O)c1cn(CC)c2ccc(S(=O)(=O)N3CCc4ccccc4C3)cc2c1=O,1.94
3,O=C(Nc1cccc(Cl)c1)c1cccc(N2C(=O)C3CC=CCC3C2=O)c1 (centres unmarked),-3.6
4,CN(C)c1ccc(/C=C(/NC(=O)c2ccccc2)C(=O)NCCCn2ccnc2)cc1,16.1
5,CCN1CCC(Nc2ccnc3cc(Cl)ccc23)CC1,-0.974
6,CSc1nnc(-c2sc3cc(Cl)ccc3c2Cl)n1C,0.997
7,Fc1ccc(CN(Cc2ccccc2)C(c2cccs2)c2nnnn2C2CCCCC2)cc1 (centres unmarked),2.28
8,COc1ccccc1NC(=O)N1CCN(S(C)(=O)=O)CC1,12.8
9,Cc1ccc(NC(=O)COc2ccc3c(c2)OCO3)c(Cl)c1,19.1
10,CC(OC(=O)CC1CCCC1)C(=O)Nc1ccc(S(N)(=O)=O)cc1 (centres unmarked),-7.85
11,CC(=O)C1=C(C)NC(=S)NC1c1cc([N+](=O)[O-])ccc1O (centres unmarked),10.2
12,Cn1c2ccccc2c(=O)c2ccc(F)cc21,11.7
13,CCOc1ccc(CCNC(=O)COC(=O)c2cc(OC)c(OC)cc2[N+](=O)[O-])cc1OCC,13.7
14,c1cnc(Sc2ccc3nnnn3n2)nc1,-29.8
15,CCOc1ccc(C(=O)NC2CCN(C(=O)Nc3ccc(F)cc3)CC2)cc1,6.75
16,CCC1(C)Cc2sc3c(=O)[nH]c(=S)[nH]c3c2CO1 (centres unmarked),13.6
17,COc1cc(NC(=O)C2CCCN2C(=O)C2CCC(C)CC2)cc(OC)c1OC (centres unmarked),-0.772
18,Cc1ccccc1C(=O)Nc1ccc(N2CCN(C)CC2)nc1,10.3
19,CSc1cccc(NS(=O)(=O)c2cccs2)c1,7.8
20,Cc1ccc(NC(=O)CCNC(=O)c2ccc(Cl)cc2)cc1C,12.4
21,CCOC(=O)C1=C(C)Nc2ccccc2N/C1=N\S(=O)(=O)c1ccc(Cl)cc1,0.996
22,O=C1[C@@H]2Cc3c([nH]c4ccccc34)C(c3ccc([N+](=O)[O-])cc3)N2C(=O)CN1C1CC1 (some centres unmarked),12.3

row,SMILES,"hERG current change (%, negative = inhibition) at 1uM [%]"
1,O=[N+]([O-])c1nn(-c2ccccc2)[n+]([O-])c1N1CCN(c2ccccc2F)CC1,11.5
2,Cc1cc(-c2nnc(SCc3ccccn3)o2)no1,8.45
3,Cc1nc(N2CCN(c3ccccn3)CC2)c2c(C)c(C(=O)N3CCN(c4ccccc4F)CC3)sc2n1,6.56
4,O=C(O)/C(=C\c1cccs1)Sc1nnc(-c2ccc(F)cc2)o1,7.47
5,O=C(Nn1c(-c2ccccc2)nc2ccccc2c1=O)c1cccs1,18.3
6,CCOC(=O)CN1C(=O)C2(OCCCO2)c2cc(Br)ccc21,11.1
7,Cc1nn(-c2ccccc2)c(N)c1Sc1ccccc1[N+](=O)[O-],12.9
8,Cc1ccc2[nH]c(=O)c(CNS(=O)(=O)c3ccccc3)c(-c3ccccc3)c2c1,9.41
9,O=C(NC1CCCC1)C1CC1c1ccccc1 (centres unmarked),4.44
10,COc1ccc(C(C)=O)cc1CSc1ccccn1,3.52
11,Cc1cc(NCc2ccccc2)nc(-c2ccccc2O)n1,12.6
12,CCOC(=O)C1CCCN(C(=O)Cc2c(C(=O)O)[nH]c3ccccc23)C1 (centres unmarked),-4.97
13,C=CCN1C(=O)c2cccc3c(Br)ccc(c23)C1=O,10.1
14,CCOc1ccc(NC(=S)N=Nc2c(O)[nH]c3ccccc23)cc1,12.1
15,O=C(CSc1nnc(-c2ccncc2)n1Cc1ccco1)Nc1ccccc1F,6.98
16,Cc1ccc(S(=O)c2ccc(C)cc2)cc1,3.27
17,COc1ccc(C(=O)COC(=O)c2ccc(N(C)C)cc2)cc1,6.2
18,Fc1ccc(-n2cc(-c3ccccc3)[n+]3c2SCC3)cc1.[Br-],0.345
19,CCC(C)NC(=O)Nc1ccc(Br)cc1 (centres unmarked),-6.84
20,CNC(=O)c1csc(-c2ccc(Cl)cc2)n1,0.835
21,O=c1[nH]c(=O)n(Cc2ccc(F)cc2)c(O)c1C=NCCCN1CCOCC1,-5.3
22,COC(=O)c1cccc(NC(=O)/C=C/c2ccc([N+](=O)[O-])cc2)c1,1.02
